Experimental data as given in PubChem BioAssay AID463173 (ICCB-Longwood Screening Facility, Harvard Medical School, 2010).
About 4,300 (8.3%) of roughly 52,000 compounds were called active. Cut-off read from the data, not from the text of the source: active = survival mostly below about 52% (no sharp cut-off); inactive = mostly above about 56%. This is one part of the list.

Test system: DeltatarO mutant
Test: growth inhibition of S. aureus wild type versus tarO mutant, primary screen, teichoic acid synthesis inhibitors, RN4220, OD600 (AID 463173)
Conditions: OD600, 18 h, stronger effect = lower value, screened at 18.75 µg/mL (by protocol)

Row | SMILES | survival
1 | Cc1ccc(S(=O)(=O)c2[nH]c(-c3ccccc3)nc2SC(C)C(=O)O)cc1 (stereo unspecified) | inactive: 77%
2 | O=C(c1ccccc1)N1CCC(c2nc3ccccc3o2)CC1 | inactive: 105%
3 | CC(=O)c1ccc(NC(=O)c2cc3c([nH]c2=O)CC(c2ccccc2)CC3=O)cc1 (stereo unspecified) | inactive: 63%
4 | CCOc1ccc2c(c1)c(=O)c(C(=O)c1ccccc1)cn2Cc1ccccc1F | inactive: 83%
5 | COc1ccc(CCNC(=O)c2cnn(-c3cccc(C)c3)c2C2CCNCC2)cc1OC | inactive: 84%
6 | CN1C(=O)Cc2cc(S(=O)(=O)CCC(=O)Nc3ccc(Cl)cc3)ccc21 | inactive: 94%
7 | Cc1cc(F)ccc1NC(=O)CCS(=O)(=O)c1cc2c3c(c1)CCN3C(=O)CC2 | inactive: 101%
8 | COc1ccc(OC)c(CNS(=O)(=O)c2cc(-c3onc(C)c3C)ccc2C)c1 | inactive: 76%
9 | Cc1ccn2c(=O)cc(COc3ccc(NC(=O)C(C)(C)C)cc3)nc2c1 | inactive: 94%
10 | Cc1ccc2c(c1)N(C(=O)Nc1ccc(Br)cc1F)CCO2 | inactive: 84%
11 | COC(=O)c1ccccc1NC(=O)CSc1n[nH]c(C)n1 | inactive: 62%
12 | O=c1c2sc3ccccc3c2n(Cc2cccc(C(F)(F)F)c2)c(=O)n1-c1ccccc1 | inactive: 73%
13 | O=C1CSC(=O)N1CNc1cc(Cl)ccc1Cl | inactive: 71%
14 | CC(C)Oc1ccc(CNC(=O)CN2C(=O)c3cccnc3Oc3ccc(Cl)cc32)cc1 | inactive: 113%
15 | CCS(=O)(=O)N1CCc2cc(C(=O)NC(C)c3ccccc3)ccc21 (stereo unspecified) | inactive: 79%
16 | FC(F)(F)c1cccc(N2CCN(c3nc4ccccc4n4cnnc34)CC2)c1 | active: 25%
17 | COc1ccc(-n2c(SC)nc3sc4c(c3c2=O)CCN(C(C)=O)C4)cc1 | inactive: 127%
18 | Cc1ccc(NC(=O)CSc2nnc(-c3cc4occc4n3C)n2-c2ccccc2C)c(C)c1 | inactive: 88%
19 | COc1ccc(CNC(=O)C2CCN(C(=O)c3cnn(-c4ccccc4)c3-n3cccc3)CC2)cc1 | inactive: 78%

Row | SMILES | survival
20 | CCNC(=O)CC1C(=O)N(c2ccc(F)cc2)C(=O)N1Cc1ccc(OC)c(OC)c1 (stereo unspecified) | inactive: 97%
21 | Cc1ccc(C(=O)N2CCN(c3cccc(Cl)c3)CC2)cc1-n1c(C)nc2cccnc21 | inactive: 70%
22 | CCc1ccccc1N(CC)C(=O)C(=O)Nc1ccc2nc3n(c(=O)c2c1)CCCCC3 | inactive: 69%
23 | O=C(c1ccc2c(c1)N(Cc1cccc(Cl)c1)C(=O)c1ccccc1S2(=O)=O)N1CCc2ccccc21 | active: 0%
24 | COc1cc(Cl)c(C)cc1NC(=O)C1CCCN(c2ncnc3onc(-c4ccc(F)cc4)c23)C1 (stereo unspecified) | inactive: 72%
25 | COc1ccc(S(=O)(=O)c2cc3cc(C(C)(C)C)cc(O)c3oc2=O)cc1 | active: 26%
26 | Cn1c(COc2ccccc2C(C)(C)C)nc2ccccc21 | active: 5%
27 | Cn1c2c(c(=O)n(C)c1=O)C(c1ccccc1C(F)(F)F)CC(=O)N2 (stereo unspecified) | inactive: 98%
28 | CCOC(=O)c1ccc(CN(Cc2ccc(F)cc2)S(=O)(=O)c2ccc(F)c(C(=O)Nc3ccccc3C(F)(F)F)c2)cc1 | inactive: 73%
29 | COC(=O)c1ccc(NS(=O)(=O)c2ccc3c(c2)n(C)c(=O)c(=O)n3C)cc1 | inactive: 79%
30 | N#Cc1c(-n2ncnc2-c2cccc(Cl)c2)sc2c1CCCCC2 | inactive: 61%
31 | CCOc1cccc(-c2nc3ccccc3c(=O)o2)c1 | active: 35%
32 | CCOC(=O)C1=C(CN(CC)Cc2ccccc2)NC(=O)NC1c1ccc(OC)cc1 (stereo unspecified) | inactive: 65%
33 | COC(=O)c1c(-c2ccc(Cl)cc2)noc1N1CCN(c2ccccc2F)CC1 | inactive: 47%
34 | CCCCNC(=O)c1ccc2c(c1)NC(=O)C(C(C)C)N2 (stereo unspecified) | inactive: 133%
35 | COc1ccc2c(c1)c1c(c(=O)n(-c3ccc(F)c(Cl)c3)c(=O)n1Cc1ccccc1F)n2C | inactive: 99%
36 | Cc1cccc(CCn2c(=O)c3ccccc3n(Cc3ccccc3C)c2=O)c1 | inactive: 72%
37 | COc1cccc(NC(=O)CN2C=NS(=O)(=O)c3ccccc32)c1 | inactive: 122%
38 | Cc1ccc(C(=O)c2sc(Nc3ccc(F)cc3)c(C#N)c2N)cc1 | inactive: 63%

Row | SMILES | survival
39 | COc1cccc(-c2nc3c(c(SCC(=O)Nc4cccc(C)c4C)n2)Cc2c(CO)cnc(C)c2O3)c1 | inactive: 118%
40 | CCOc1ccccc1NC(=O)N1CC(C)Oc2ccc(Cl)cc21 (stereo unspecified) | inactive: 54%
41 | CCOC(=O)c1cnc(NCc2ccc(OC)cc2OC)c2ccccc12 | inactive: 86%
42 | Cc1ccc(OC(=O)CSc2nnc(-c3ccc4c(c3)OCO4)o2)c(C)c1 | inactive: 63%
43 | COc1ccc2c(c1)c1c(c(=O)n(Cc3ccccc3)c(=O)n1CC(=O)Nc1ccccc1F)n2C | inactive: 109%
44 | Cc1cccn2c(=O)cc(COc3ccc(NC(=O)COc4ccc(F)cc4)cc3)nc12 | inactive: 89%
45 | CC(C)CC(O)(CC(C)C)C(=O)NNc1ccccc1 | inactive: 75%
46 | Cc1cc(C)c2oc(C(=O)NCCc3ccc(S(N)(=O)=O)cc3)cc(=O)c2c1 | inactive: 63%
47 | CC(C)(C)c1ccc(C(=O)NC2=NC(c3cccc(F)c3)CC(=O)N2)cc1 (stereo unspecified) | inactive: 52%
48 | O=C1CC(c2ccccc2)Cc2[nH]c(=O)c(-c3nc(-c4ccc(Cl)c(Cl)c4)cs3)cc21 (stereo unspecified) | inactive: 94%
49 | COc1ccc(Cl)cc1NC(=O)C(=O)NCc1ccc(Cl)cc1 | inactive: 150%
50 | CCOC(=O)Cc1nn(CC)c(=O)c2ccccc12 | inactive: 76%
51 | O=C(CNS(=O)(=O)c1ccc(Br)s1)N1CCN(c2ccc(F)cc2)CC1 | active: 27%
52 | CCS(=O)(=O)NCCc1sc2nc(-c3ccc(OC)cc3)nn2c1C | inactive: 72%
53 | Cc1ccc(NC(=O)N2CCN(C(=O)c3nsc4ccccc34)CC2)cc1C | active: -5%
54 | COCCNS(=O)(=O)c1cc(-c2nn3c(C)nnc3c3ccccc23)ccc1C | inactive: 64%
55 | CCCCN(CC)CCNC(=O)Cn1cnc2sc(C)c(S(=O)(=O)N3CCN(c4ccccc4OC)CC3)c2c1=O | inactive: 84%
56 | CCOc1ccc2nc(N3CCCC(C(=O)NCCc4ccc(OC)cc4OC)C3)sc2c1 (stereo unspecified) | inactive: 62%
